Experimental data taken from PubChem BioAssay AID588855 (National Center for Advancing Translational Sciences (NCATS), 2011).
Screen size: about 410,000 compounds; about 5,000 (1.2%) were called active. This list was built around the results that the source calls inconclusive (neither active nor inactive); the mix of calls is not that of the screen. Calls follow the shape of the dose curve; as a rule, active = well fitted inhibition curve with a large enough effect; inconclusive = small, poorly fitted or top-dose-only effect; inactive = no such curve, though single readings can be large or run the other way. Where the call is inconclusive, the potency comes from a doubtful curve fit.

Experiment: qHTS for Inhibitors of TGF-b; also: nearly all actives have a fitted effect of over 65% in size
Conditions: HepG2 CAGA-GFP TGF-b/SMAD3 reporter, GFP fluorescence, 18 h, TGF-beta stimulated, 500 pg/mL final; series mostly up to 46.1 µM; activity, negative = inhibition: at the top concentration
Procedure, shortened: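 Inhibition was scored as loss of TGF-beta-induced (500 pg/mL final, 18 hours, 37 degrees C) GFP in HEPG2 cells carrying a CAGA-GFP reporter, in DMEM with 1% FBS. Well GFP was summed per cell; Activity was normalised to unstimulated and stimulated DMSO wells, then concentration-response fitting.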
% is scaled to controls: 0 for no effect and ±100 for the full control effect; potency is read from the fitted curve at half-maximal effect; tags tell the direction and shape of the fitted curve.

SMILES	Potency	activity, negative = inhibition
Brc1c(CSc2nncn2-c2ccccc2)nc2sccn12	inconclusive: 5.62 µM [inhibitor, full curve, poor fit]	–
O=C(NCCc1ccc(Cl)cc1)c1ccc2c(c1)N(Cc1ccc(Cl)cc1)C(=O)CS2	inconclusive: 14.1 µM [inhibitor, partial curve, poor fit]	–
CCc1cc2c(CN(C)Cc3ccccc3F)cc(=O)oc2cc1O	inconclusive: 25.1 µM [inhibitor, single point]	–
CCOCCCNC(=O)c1cn(C)c2ccc(S(=O)(=O)N3CCCCC3)cc2c1=O	–	inactive: -5.63%
NC(=O)c1c(NC(=O)c2cc3ccccc3o2)sc2c1CCC2	–	inactive: -0.865%
Cc1ccc(NC(=O)C2CCN(c3nnc(C)c4c(C)n(-c5ccccc5)nc34)CC2)c(Cl)c1	inconclusive: 0.316 µM [inhibitor, full curve]	–
O=C(O)c1c(Br)c(Br)c(Br)c(Br)c1C1c2ccc(O)cc2Oc2cc(O)ccc21	inconclusive: 35.5 µM [inhibitor, single point]	–
COc1cccc(/C=C2/CCC(CN(C)C)C2=O)c1 (stereo unspecified)	active: 2.51 µM	–
O=C(CSc1ccc2nnc(-c3ccccn3)n2n1)Nc1ccccc1F	–	inactive: 11.9%
Cc1ccnc(NC(=O)Cc2ccc(-c3ccccc3)cc2)c1	inconclusive: 12.6 µM [inhibitor, partial curve, poor fit]	–
CCOC(=O)COc1ccc2ccccc2c1/C=C/[N+](=O)[O-]	active: 5.01 µM	–
O=C(NCc1ccccn1)Nc1ccccc1F	–	inactive: -2.77%
CC(C)(C)c1ccc(C(O)c2ncc(-c3ccc4ccccc4c3)[nH]2)cc1 (stereo unspecified)	inconclusive: 35.5 µM [inhibitor, single point]	–
O=c1cccc2c1c1cc[nH]c3ccc(=O)n2c31	inconclusive: 22.4 µM [inhibitor, single point]	–
CCOc1ccc(-n2c(=O)c3ccccc3c3ccccc3c2=O)cc1	inconclusive: 11.2 µM [inhibitor, single point]	–
CCOC(=O)N=S(N)(=O)c1ccccc1 (stereo unspecified)	–	inactive: 21%
CCc1c(C)nc2nncn2c1NCc1ccccc1	inconclusive: 1.41 µM [inhibitor, partial curve, poor fit]	–
O=S1(=O)c2ccccc2N(Cc2ccc(Cl)cc2)c2ccccc21	inconclusive: 22.4 µM [inhibitor, single point]	–
CC(=O)c1cn(Cc2ccccc2)c(=O)n(Cc2ccc(F)cc2)c1=O	–	inactive: -7.09%
COc1ccc2c(c1)c(=O)c(C(=O)c1ccc(F)cc1)cn2CC(=O)Nc1ccc2c(c1)OCO2	–	inactive: 0.0812%
COC(=O)c1sccc1NC(=O)c1cc(-c2cccc(C)c2)nc2ccccc12	inconclusive: 4.47 µM [inhibitor, single point]	–
Cc1nc2ccc(NC(=O)c3ccc(S(=O)(=O)N(C)c4ccccc4)cc3)cc2s1	inconclusive: 10 µM [inhibitor, partial curve]	–

SMILES	Potency	activity, negative = inhibition
CC1(c2ccccc2)NC(=O)N(CC(=O)Nc2ccc3c(c2)CCC3)C1=O (stereo unspecified)	–	inactive: -13.8%
CCc1nnc(NC(=O)c2nc(SCc3ccccc3F)ncc2Cl)s1	–	inactive: 6.56%
COC(=O)c1c(N2C(=O)[C@H]3[C@@H](C2=O)[C@]2(C(=O)Nc4c2ccc(C)c4C)N2CCC[C@@H]32)sc(C)c1C	inconclusive: 35.5 µM [inhibitor, single point]	–
CCCCOc1ccc(Cn2c(=O)oc3ccc(C)cc32)cc1OC	inconclusive: 15.8 µM [inhibitor, single point]	–
Cc1nn(Cc2ccc(Cl)c(Cl)c2)c(C)c1NC(=O)c1sc2ccccc2c1Cl	inconclusive: 10 µM [inhibitor, partial curve]	–
CC(NS(=O)(=O)c1ccc(F)cc1)C(=O)NCc1ccncc1 (stereo unspecified)	inconclusive: 6.31 µM [inhibitor, partial curve, poor fit]	–
Cc1cc(-n2ccc(=O)[nH]c2=O)nc(-c2ccccc2)n1	inconclusive: 35.5 µM [inhibitor, single point]	–
COc1ccccc1N1CCN(C(=O)c2ccc3[nH]c4c(c3c2)CC(C)CC4)CC1 (stereo unspecified)	inconclusive: 35.5 µM [inhibitor, single point]	–
Cc1cc(OC(C)C(=O)NCc2ccccn2)c2c(C)c(Cc3ccccc3)c(=O)oc2c1 (stereo unspecified)	inconclusive: 3.16 µM [inhibitor, partial curve]	–
O=C(C1CCCC1)N1CCC(CC2CC(c3cccc(Br)c3)=NO2)(C(=O)NCC2CCCCC2)CC1 (stereo unspecified)	inconclusive: 35.5 µM [inhibitor, single point]	–
O=C(Nc1ccc(-c2noc(CCc3ccccc3)n2)cc1)c1ccco1	inconclusive: 12.6 µM [inhibitor, partial curve, poor fit]	–
COc1ccccc1-n1c(SCC(=O)NCc2ccc3c(c2)OCO3)nc2cc([N+](=O)[O-])ccc21	–	inactive: 2.97%
O=C(Nc1nnc(S(=O)(=O)N2CCc3ccccc32)s1)c1cccc(Cl)c1	active: 7.94 µM	–
Cc1oc(-c2ccc(Cl)cc2)nc1CN1CCCN(C(=O)c2ccco2)CC1	inconclusive: 14.1 µM [inhibitor, single point]	–
CCCCN1C(=O)C(CC(=O)NCc2cccs2)CC(C(=O)N(CC)CC)=C1C (stereo unspecified)	–	inactive: 2.61%
Cc1cc(Cl)ccc1OCC(=O)NCCOC(=O)Nc1sc(=S)n(C)c1C	inconclusive: 12.6 µM [inhibitor, partial curve, poor fit]	–
Cc1cccc(NC(=S)NCc2ccc3[nH]c4c(c3c2)CCCC4)c1	active: 25.1 µM	–
O=C(CN1C(=O)C(=O)N(Cc2ccccc2)C1=O)Nc1cc(Cl)cc(Cl)c1	inconclusive: 35.5 µM [inhibitor, single point]	–
CC(C)Nc1ccc(C(CC(N)=O)NC(=O)c2ccc(Br)cc2)cc1[N+](=O)[O-] (stereo unspecified)	inconclusive: 1 µM [inhibitor, full curve, poor fit]	–
CCN(CC)CCCn1c(=S)[nH]c2cc(Cl)ccc2c1=O	–	inactive: 4.5%
O=C(N/N=C(\c1ccccc1)c1ccccn1)c1cccc([N+](=O)[O-])c1	inconclusive: 1.78 µM [inhibitor, partial curve, poor fit]	–
O=C(c1ccc2c(=O)n(C3CCCC3)c(=S)[nH]c2c1)N1CCCCCC1	inconclusive: 10 µM [inhibitor, partial curve, poor fit]	–

SMILES	Potency	activity, negative = inhibition
Cc1ccc(S(=O)(=O)NC(C)(C)C)cc1C(=O)OCC(=O)N1CCCC1=O	–	inactive: -15.4%
CN(C)c1ccc(C(=O)Oc2cc(O/N=[N+](\[O-])N(C)C)c([N+](=O)[O-])cc2[N+](=O)[O-])cc1	inconclusive: 8.91 µM [inhibitor, partial curve, poor fit]	–
CCc1ccc(CN2CCCC(CCC(=O)N3CCN(c4ccccn4)CC3)C2)o1 (stereo unspecified)	inconclusive: 14.1 µM [inhibitor, single point]	–
O=C(/C=C/c1ccccc1Cl)Nc1nc(-c2cccs2)ns1	inconclusive: 1.41 µM [inhibitor, partial curve, poor fit]	–
COc1ccc(-c2c(C)oc3c(CN4CCCCC4C)c(O)ccc3c2=O)cc1OC (stereo unspecified)	inconclusive: 0.447 µM [inhibitor, full curve, poor fit]	–
CSc1nc(SCC(=O)O)c2sc3nc(-c4ccccc4)c4c(c3c2n1)CCC4	inconclusive: 35.5 µM [inhibitor, single point]	–
Cc1ccc(S(=O)(=O)N2CCN(C(=O)C3CCCC3)CC2)cc1C	–	inactive: 2.57%
Cc1cc(NS(=O)(=O)c2ccc3oc(=O)c4ncn(C)c4c3c2)ccc1Br	inconclusive: 12.6 µM [inhibitor, partial curve, poor fit]	–
CC(=O)N1CCN(c2ccc(NC(=S)NC(=O)COc3ccc(C(C)(C)C)cc3)cc2)CC1	inconclusive: 0.794 µM [inhibitor, full curve]	–
NNC(=O)c1cc(O)c(O)c(O)c1	inconclusive: 6.31 µM [inhibitor, single point]	–
O=C(NC1CCCCC1)C(c1ccc2ncccc2c1)N(Cc1ccc2c(c1)OCO2)C(=O)c1ccc2c(c1)OCCO2 (stereo unspecified)	–	inactive: 0.602%
O=C(Nc1ccncc1)c1cc(-c2ccccn2)nc2ccccc12	–	inactive: 13.2%
O=C(NCc1ccccc1)C1CC(=O)N(C2CCCCCC2)C1 (stereo unspecified)	inconclusive: 35.5 µM [inhibitor, single point]	–
CN1C[C@@H]2C(c3ccc(Cl)nc3)C3(c4cccnc4)CC2(C3)[C@H]1c1ccccc1 (stereo partly specified)	inconclusive: 0.501 µM [inhibitor, full curve, poor fit]	–
C[N+]1(CCCOC(=O)C2(c3ccccc3)CCCC2)CCOCC1	inconclusive: 3.55 µM [inhibitor, partial curve]	–
CN(C)S(=O)(=O)c1ccc(C(=O)NCCSc2c(-c3ccc(Cl)cc3)[nH]c3ccccc23)cc1	–	inactive: -13.3%
C=C1SC(Nc2c(C)cc(C)cc2C)=NC12CCCCC2	inconclusive: 22.4 µM [inhibitor, single point]	–
COc1cccc(N2CC(O)=C(c3nc4ccccc4s3)C2=N)c1	inconclusive: 5.01 µM [inhibitor, partial curve]	–
COc1ccc(/C=C2\C=Cc3ccccc32)cc1	–	inactive: -3.38%
O=C(N/N=C/c1ccccc1)c1ccc(N2CCCC2=O)cc1	inconclusive: 35.5 µM [inhibitor, single point]	–
COC(=O)N1C(=O)[C@@](c2ccccc2)(C2CCCCC2)N1C(=O)OC	inconclusive: 17.8 µM [inhibitor, single point]	–
COc1ccc(C(CNC(=O)c2cccc(S(=O)(=O)N3CCCc4ccccc43)c2)N(C)C)cc1 (stereo unspecified)	inconclusive: 22.4 µM [inhibitor, single point]	–
